# Results: PubChem BioAssay AID651820 (National Center for Advancing Translational Sciences (NCATS), 2012)
# Values joined by “and” are separate entries in the source; they are usually repeats but may differ in a detail not shown here. Equal entries are not always repeated. Out of some 340,000 compounds screened, about 12,000 (3.5%) were called active. The shares of active, inactive and inconclusive entries below differ from those in the screen. The call rests on the fitted dose curve; in most records, active means well fitted inhibition curve with a large enough effect; inconclusive means small, poorly fitted or top-dose-only effect, or another doubt; inactive means no such curve, though single readings can be large or run the other way. Potencies of inconclusive entries are doubtful fits and often do not repeat.
# Experiment: qHTS Assay for Inhibitors of Hepatitis C Virus (HCV)
# Details: Huh7.5.1 HCVcc-Cre (HCVcc is cell-culture hepatitis C virus) infection, luciferase reporter, 44 h; series mostly up to 41.8 µM
# In short: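 Whole-lifecycle infectious HCVcc-Cre system; cells 1,000/well, compound then virus (~0.5 moi) added 4 h after plating, 44 h culture. Luciferase read 15 sec following 15 min substrate incubation, room temp.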
# Potency means the concentration at half of the fitted maximal effect; tags describe the fitted curve by direction and shape.
row,SMILES,Potency
1,O=S(=O)(c1ccc(F)cc1)N1CCN(c2ccccn2)CC1,inactive
2,CCOc1cc2c3c(c1)C1(Nc4ccccc4S1)C(=O)N3C(C)(C)CC2C (stereo unspecified),"inconclusive: 5.62 µM [inhibitor, partial curve]"
3,COc1cc(/C=C/C(=O)OCc2csc(CC(=O)Nc3ccc(C)cc3)n2)ccc1OCC#N,"inconclusive: 11.2 µM [inhibitor, partial curve]"
4,Cc1ccc(NC(=O)c2cccc(S(=O)(=O)N3CCN(c4ccc(F)cc4)CC3)c2)nc1,"inconclusive: 12.6 µM [inhibitor, single point]"
5,CC(C)n1nc(C(=O)Nc2nnc(SCc3c(Cl)cccc3Cl)s2)c2ccccc2c1=O,"inconclusive: 31.6 µM [inhibitor, single point]"
6,COc1cccc(CN2CC(C(=O)NCCCn3cccn3)CCC2=O)c1 (stereo unspecified),inactive
7,Cn1c(=O)c2c(nc(Br)n2CC(=O)c2cccs2)n(C)c1=O,inactive
8,CN1CCN(c2ccc([N+](=O)[O-])cc2C(=O)c2ccccc2)CC1,"inconclusive: 31.6 µM [inhibitor, single point]"
9,COc1ccc2c(c1)[C@H]1[C@H](CO2)[C@H](c2ccccc2)[C@]2(C)C(=O)Nc3ccc(Cl)cc3C(=O)N12,"inconclusive: 17.8 µM [inhibitor, partial curve]"
10,O=C(NCCN1CCN(c2ccccc2F)CC1)c1cccn2c(=O)c3ccccc3nc12,"inconclusive: 7.94 µM [inhibitor, partial curve]"
11,N#Cc1nc(-c2ccccc2)oc1NCCN1CCCCC1,"inconclusive: 31.6 µM [inhibitor, partial curve, poor fit]"
12,CC(=O)NC(c1ccc(C)cc1)c1cc(Cl)c2cccnc2c1O (stereo unspecified),active: 5.62 µM
13,CC(=O)c1ccc(NC(=O)CO/N=C(\C)c2cccs2)cc1,"inconclusive: 31.6 µM [inhibitor, single point]"
14,CC(C)Oc1ccccc1/C=N/Nc1ccccc1[N+](=O)[O-],"inconclusive: 7.94 µM [inhibitor, partial curve, poor fit]"
15,Cc1ccc(C)c(NS(=O)(=O)c2cc(C(=O)NCCC3=CCCCC3)ccc2C)c1,"inconclusive: 31.6 µM [inhibitor, single point]"
16,CCN(CC(=O)Nc1ccc2c(c1)OCCO2)C(=O)c1ccc([N+](=O)[O-])s1,"inconclusive: 17.8 µM [inhibitor, partial curve]"
17,O=C(NC1CCCN(Cc2ccc(Cl)cc2)C1)c1cccc(F)c1 (stereo unspecified),"inconclusive: 31.6 µM [inhibitor, single point]"
18,CCc1noc(C)c1C(=O)Nc1ccc(S(=O)(=O)N2CCCCC2)cc1,"inconclusive: 31.6 µM [inhibitor, single point]"
19,COc1ccc(-c2c(-c3ccccc3OC)oc3ccccc23)cn1,"inconclusive: 12.6 µM [inhibitor, partial curve]"
20,COc1ccc(-c2nnc(CSc3nc4ccccc4c(=O)n3CC(C)C)o2)cc1OC,"inconclusive: 31.6 µM [inhibitor, single point] and inconclusive: 8.91 µM [inhibitor, partial curve, poor fit]"
21,O=c1c2ccccc2n2c(-c3cccc(Cl)c3)nnc2n1Cc1ccccc1,inactive

row,SMILES,Potency
1,COc1cc(-c2cc(-c3ccc(O)cc3)nc(N)c2C#N)ccc1O,"inconclusive: 31.6 µM [inhibitor, single point]"
2,CCc1cccc(CC)c1NC(=O)/C(C#N)=C/c1ccccc1C(F)(F)F,active: 11.2 µM
3,COC(=O)C(=N/Nc1ccccc1C(=O)OC)/C(C)=N/O,"inconclusive: 10 µM [inhibitor, partial curve, poor fit]"
4,CCCC(=O)N1CCN(c2ccc(NC(=O)c3ccc([N+](=O)[O-])o3)cc2Cl)CC1,"inconclusive: 5.62 µM [inhibitor, full curve]"
5,O=C(O)c1cc(S(=O)(=O)N2CC3CC3C2C(=O)O)c(Cl)cc1Cl (stereo unspecified),inactive
6,NC(=O)[C@@H]1CC2(CC(c3cccc(NC(=O)[C@H]4CCC(=O)N4)c3)=NO2)CN1C(=O)COc1ccc(Cl)cc1 (stereo partly specified),inactive
7,COc1ccc(-c2cc(C(F)(F)F)nc(N3CCCCCC3)n2)cc1,"inconclusive: 25.1 µM [inhibitor, single point]"
8,Cc1nnc(SCC(=O)Nc2ccc3c(c2)OCO3)o1,inactive
9,Cc1onc(-c2c(F)cccc2Cl)c1C(=O)Nc1ccc(Cl)c(S(=O)(=O)N(C)C)c1,"inconclusive: 14.1 µM [inhibitor, single point]"
10,O=C(CCS(=O)(=O)c1cc2c(cc1Cl)NC(=O)CO2)NCc1ccccc1,inactive
11,COC(=O)c1cc(Cl)c(NC(=O)/C=C/c2ccc(Cl)cc2)cc1OC,"inconclusive: 5.01 µM [inhibitor, partial curve]"
12,COc1cccc(N2CCN(C(=O)C3CCC(=O)N(C4CCCCCC4)C3)CC2)c1 (stereo unspecified),"inconclusive: 10 µM [inhibitor, partial curve]"
13,c1ccc(Nc2nc(-c3ccccc3)nc3ccccc23)cc1,active: 14.1 µM
14,C=CCSc1nc2sc3c(c2c(=O)n1-c1ccccc1)CCN(C)C3,"inconclusive: 0.447 µM [inhibitor, partial curve, poor fit]"
15,COc1cccc(CNC(=O)C2CCN(C(=O)N3CC(C)Oc4ccccc43)CC2)c1 (stereo unspecified),"inconclusive: 11.2 µM [inhibitor, single point]"
16,O=C1N(c2ccccc2)C[C@@H]2C[C@@H](c3cc4ccccc4o3)N3CCC[C@@]123,"inconclusive: 0.316 µM [inhibitor, full curve, poor fit]"
17,c1ccc(N2CCN(Cc3ccc4c(c3)OCO4)CC2)nc1,inactive
18,O=C1/C(=C/c2ccccc2)C[C@@]2(O)[C@H]3Cc4ccc(O)c5c4[C@@]2(CCN3CC2CC2)C1O5 (stereo partly specified),active: 3.16 µM
19,CCOC(=O)C1CCN(C(=S)Nc2cc(OC)c(OC)cc2C(=O)OC)CC1,"inconclusive: 31.6 µM [inhibitor, single point]"
20,CS(=O)(=O)c1ccc2nc(NC(=O)c3cccc(NS(=O)(=O)c4ccc(F)c(F)c4)c3)sc2c1,"inconclusive: 31.6 µM [inhibitor, partial curve, poor fit]"
